Data on eight sequences can be found in article PMC5700166.

The list shows a part of the results, in another mix than the full data. The list includes weakly bound sequences.

The assay addresses T1, GST-Dm-Relish (UniProt Q94527).
T1 sequence: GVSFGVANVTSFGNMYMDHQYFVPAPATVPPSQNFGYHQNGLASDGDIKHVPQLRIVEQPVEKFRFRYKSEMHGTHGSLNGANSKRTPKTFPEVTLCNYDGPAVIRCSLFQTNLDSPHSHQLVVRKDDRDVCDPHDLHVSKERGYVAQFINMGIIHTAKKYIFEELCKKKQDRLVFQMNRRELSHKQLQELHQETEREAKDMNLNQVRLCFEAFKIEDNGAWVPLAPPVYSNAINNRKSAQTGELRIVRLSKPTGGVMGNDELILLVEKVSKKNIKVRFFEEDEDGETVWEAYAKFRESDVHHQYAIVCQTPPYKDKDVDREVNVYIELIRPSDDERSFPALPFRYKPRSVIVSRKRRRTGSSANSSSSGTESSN
Put plainly: protein-binding microarray (PBM). The note with it: PBM: ~300 nM protein, 6 mM HEPES pH 7.8, 80 mM KCl, 0.5 mM EDTA, 0.5 mM EGTA, 6% glycerol, 35 ng/ul poly-dIdC, 1% milk, 1 h, room temperature; Ap Aiptasia and Nv Nematostella (sea anemones) / Co Capsaspora / Aq Amphimedon (sponge) / Dm Drosophila / Hu human; RHD is the Rel homology domain; high values mean tight binding; most listed sequences are background and not binding sites; double strand, one strand shown.
“CCGATTAACATCACCCATGGGAATGATGTTAATCGGGTCTTGATTCGCTTGACGCTGCTG” registered a binding signal of 1.03 z-score.

The sequence “CCGATTAACATCACATGTGGGAATGATGTTAATCGGGTCTTGATTCGCTTGACGCTGCTG” had a binding signal of 0.788 z-score.

“CCGATTAACATCAGGAGAGCCCCTGATGTTAATCGGGTCTTGATTCGCTTGACGCTGCTG” yielded a binding signal of 2.24 z-score.

“CCGATTAACATCAATATCCCCCCTGATGTTAATCGGGTCTTGATTCGCTTGACGCTGCTG” gave a binding signal of 5.53 z-score.

“CCGATTAACATCACAAAAGTCCCTGATGTTAATCGGGTCTTGATTCGCTTGACGCTGCTG” registered a binding signal of 7.55 z-score.

In the case of “CCGATTAACATCAGGGGGGACCCTGATGTTAATCGGGTCTTGATTCGCTTGACGCTGCTG”, the binding signal was found to be 6.14 z-score.

In turn, “CCGATTAACATCAGGGCAGTACCTGATGTTAATCGGGTCTTGATTCGCTTGACGCTGCTG” had a binding signal of 1.84 z-score.

“CCGATTAACATCAAGAAATTTCCTGATGTTAATCGGGTCTTGATTCGCTTGACGCTGCTG” registered a binding signal of 0.976 z-score.
